# Results taken from the supplement of paper PMC8728848.
# Some of the results follow.
# B1: AT1G15820(2) (Arabidopsis thaliana), Q9LMQ2 (protein)
# chain: MAMAVSGAVLSGLGSSFLTGGKRGATALASGVGTGAQRVGRKTLIVAAAAAQPKKSWIPAVKGGGNFLDPEWLDGSLPGDFGFDPLGLGKDPAFLKWYREAELIHGRWAMAAVLGIFVGQAWSGVAWFEAGAQPDAIAPFSFGSLLGTQLLLMGWVESKRWVDFFNPDSQSVEWATPWSKTAENFANYTGDQGYPGGRFFDPLGLAGKNRDGVYEPDFEKLERLKLAEIKHSRLAMVAMLIFYFEAGQGKTPLGALGL
# What was measured:
# Test in all cases: glycan array binding signal (z-score within array); higher = stronger binding
# Conditions in all cases: glycan notation: IUPAC condensed, linker removed
# Gal6S(b1-4)Glc = biological target: Gal6S(b1-4)Glc
# Summary of the method: (§1)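 From the Consortium for Functional Glycomics database, 3228 arrays were curated, keeping only those whose protein sequence was available. Binding is given as a within-array Z-score averaged across arrays sharing a protein sequence and across linkers. Negative Z-scores can be read as non-binding.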
# Gal6S(b1-4)Glc6S = biological target: Gal6S(b1-4)Glc6S
# Summary of the method: as §1
# Gal6S(b1-4)GlcNAc = biological target: Gal6S(b1-4)GlcNAc
# Summary of the method: as §1
# Gal6S(b1-4)GlcNAc6S = biological target: Gal6S(b1-4)GlcNAc6S
# Summary of the method: as §1
# GalNAc(a1-3)Gal = biological target: GalNAc(a1-3)Gal
# Summary of the method: as §1
# GalNAc(a1-3)GalNAc = biological target: GalNAc(a1-3)GalNAc
# Summary of the method: as §1
# [1] = biological target: GalNAc(a1-3)GalNAc(b1-3)Gal(a1-4)Gal(b1-4)Glc
# Summary of the method: as §1
# [2] = biological target: GalNAc(a1-3)GalNAc(b1-3)Gal(a1-4)Gal(b1-4)GlcNAc
# Summary of the method: as §1
# GalNAc(b1-3)Gal = biological target: GalNAc(b1-3)Gal
# Summary of the method: as §1
# [3] = biological target: GalNAc(b1-3)Gal(a1-4)Gal(b1-4)GlcNAc
# Summary of the method: as §1
# [4] = biological target: GalNAc(b1-3)Gal(a1-4)Gal(b1-4)GlcNAc(b1-3)Gal(b1-4)Glc
# Summary of the method: as §1
# [5] = biological target: GalNAc(b1-3)Gal(a1-6)Gal(b1-4)Glc
# Summary of the method: as §1
# GalNAc(b1-3)GalNAc = biological target: GalNAc(b1-3)GalNAc
# Summary of the method: as §1
# GalNAc(b1-3)GlcNAc = biological target: GalNAc(b1-3)GlcNAc
# Summary of the method: as §1
# GalNAc(b1-4)Gal(b1-4)Glc = biological target: GalNAc(b1-4)Gal(b1-4)Glc
# Summary of the method: as §1
# GalNAc(b1-4)GlcNAc = biological target: GalNAc(b1-4)GlcNAc
# Summary of the method: as §1
# [6] = biological target: GalNAc(b1-4)GlcNAc(b1-2)Man
# Summary of the method: as §1
# [7] = biological target: GalNAc(b1-4)GlcNAc(b1-2)Man(a1-3)[GalNAc(b1-4)GlcNAc(b1-2)Man(a1-6)]Man(b1-4)GlcNAc(b1-4)GlcNAc
# Summary of the method: as §1
# [8] = biological target: GalNAc(b1-4)GlcNAc(b1-3)GalNAc(b1-4)GlcNAc
# Summary of the method: as §1
# GalNAc(b1-4)GlcNAc6S = biological target: GalNAc(b1-4)GlcNAc6S
# Summary of the method: as §1
# GalNAc(b1-6)GalNAc = biological target: GalNAc(b1-6)GalNAc
# Summary of the method: as §1
# GalNAc3S(b1-4)GlcNAc = biological target: GalNAc3S(b1-4)GlcNAc
# Summary of the method: as §1
# GalNAc3S(b1-4)GlcNAc3S = biological target: GalNAc3S(b1-4)GlcNAc3S
# Summary of the method: as §1
# [9] = biological target: GalNAc3S(b1-4)[Fuc(a1-3)]GlcNAc
# Summary of the method: as §1
# GalNAc4S6S(b1-4)GlcNAc = biological target: GalNAc4S6S(b1-4)GlcNAc
# Summary of the method: as §1
# GalNAc6S(b1-4)GlcNAc = biological target: GalNAc6S(b1-4)GlcNAc
# Summary of the method: as §1
# Glc(a1-4)Glc = biological target: Glc(a1-4)Glc
# Summary of the method: as §1
# [10] = biological target: Glc(a1-4)Glc(a1-4)Glc(a1-4)Glc
# Summary of the method: as §1
# Glc(a1-6)Glc(a1-6)Glc = biological target: Glc(a1-6)Glc(a1-6)Glc
# Summary of the method: as §1
# [11] = biological target: Glc(a1-6)Glc(a1-6)Glc(a1-6)Glc
# Summary of the method: as §1
# Glc(b1-4)Glc = biological target: Glc(b1-4)Glc
# Summary of the method: as §1
# Glc(b1-6)Glc = biological target: Glc(b1-6)Glc
# Summary of the method: as §1
# GlcA(b1-3)Gal = biological target: GlcA(b1-3)Gal
# Summary of the method: as §1
# GlcA(b1-3)GlcNAc = biological target: GlcA(b1-3)GlcNAc
# Summary of the method: as §1
# GlcA(b1-6)Gal = biological target: GlcA(b1-6)Gal
# Summary of the method: as §1
# [12] = biological target: GlcA3S(b1-3)Gal(b1-4)GlcNAc(b1-2)Man
# Summary of the method: as §1
# [13] = biological target: GlcA3S(b1-3)Gal(b1-4)GlcNAc(b1-3)Gal(b1-4)Glc
# Summary of the method: as §1
binder,measurement,setting,value
B1,glycan array binding signal (z-score),Gal6S(b1-4)Glc,0.21
same,glycan array binding signal (z-score),Gal6S(b1-4)Glc6S,0.531
same,glycan array binding signal (z-score),Gal6S(b1-4)GlcNAc,0.19
same,glycan array binding signal (z-score),Gal6S(b1-4)GlcNAc6S,-0.432
same,glycan array binding signal (z-score),GalNAc(a1-3)Gal,-0.214
same,glycan array binding signal (z-score),GalNAc(a1-3)GalNAc,-0.169
same,glycan array binding signal (z-score),[1],-0.102
same,glycan array binding signal (z-score),[2],0.031
same,glycan array binding signal (z-score),GalNAc(b1-3)Gal,-0.276
same,glycan array binding signal (z-score),[3],3.99
same,glycan array binding signal (z-score),[4],-0.301
same,glycan array binding signal (z-score),[5],0.018
same,glycan array binding signal (z-score),GalNAc(b1-3)GalNAc,0.021
same,glycan array binding signal (z-score),GalNAc(b1-3)GlcNAc,-0.04
same,glycan array binding signal (z-score),GalNAc(b1-4)Gal(b1-4)Glc,0.252
same,glycan array binding signal (z-score),GalNAc(b1-4)GlcNAc,8.56
same,glycan array binding signal (z-score),[6],-0.065
same,glycan array binding signal (z-score),[7],0.719
same,glycan array binding signal (z-score),[8],-0.566
same,glycan array binding signal (z-score),GalNAc(b1-4)GlcNAc6S,0.01
same,glycan array binding signal (z-score),GalNAc(b1-6)GalNAc,-0.112
same,glycan array binding signal (z-score),GalNAc3S(b1-4)GlcNAc,-0.127
same,glycan array binding signal (z-score),GalNAc3S(b1-4)GlcNAc3S,-0.371
same,glycan array binding signal (z-score),[9],-0.59
same,glycan array binding signal (z-score),GalNAc4S6S(b1-4)GlcNAc,-0.032
same,glycan array binding signal (z-score),GalNAc6S(b1-4)GlcNAc,-0.68
same,glycan array binding signal (z-score),Glc(a1-4)Glc,0.453
same,glycan array binding signal (z-score),[10],-0.399
same,glycan array binding signal (z-score),Glc(a1-6)Glc(a1-6)Glc,0.081
same,glycan array binding signal (z-score),[11],0.217
same,glycan array binding signal (z-score),Glc(b1-4)Glc,-0.403
same,glycan array binding signal (z-score),Glc(b1-6)Glc,0.035
same,glycan array binding signal (z-score),GlcA(b1-3)Gal,0.108
same,glycan array binding signal (z-score),GlcA(b1-3)GlcNAc,-0.355
same,glycan array binding signal (z-score),GlcA(b1-6)Gal,-0.113
same,glycan array binding signal (z-score),[12],-0.297
same,glycan array binding signal (z-score),[13],-0.177
